# Assay results: PubChem BioAssay (NCI)
# “And” between values parts separate entries of the source, which are not always exact repeats. Equal entries are not always repeated.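 Values below derive from 48-hour exposures of cells grown in 96-well plates, with endpoints linearly interpolated between the two concentrations bracketing the appropriate inhibition level. GI50 = concentration required for 50% inhibition of growth. TGI denotes the concentration required for complete inhibition of growth.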
# System: NCI-H322M lung
# Test: inhibition of tumour cell growth, NCI panel, 48 h
Structure (SMILES),TGI,GI50
O=C1N(c2ccccc2)C(=S)/C(=C/c2ccc(Cl)cc2)N1c1ccc(Cl)cc1,> 100 µM,
C/C(=N\NC(N)=S)c1ccc(C2CCCCC2)cc1,83.6 µM,
COC(=O)C(C(=O)C(N)=O)c1csc(-n2nc(-c3ccccc3)cc2-c2ccccc2)n1 (stereo unspecified),> 31.6 µM,
O=Cc1ccc(N2CCN(c3ccc(C=O)cc3)CC2)cc1,> 100 µM,> 100 µM
CCn1c2ccccc2c2cc(Nc3cc(C)[nH]c(=O)n3)ccc21,> 100 µM,
Cn1cc(C2=C(c3cn(CCCCC(=N)N)c4ccccc34)C(=O)NC2=O)c2ccccc21,> 25 µM,> 25 µM
N#CC(C(=O)CCCC(=O)Nc1ccc(Cl)cc1Cl)c1ccc(Cl)cc1 (stereo unspecified),> 100 µM,
Cc1ccccc1NC(=O)Cc1csc(N=Nc2c(O)[nH]c3ccccc23)n1,81.7 µM,
O=C(CCCCCCCCC(=O)N/N=C\c1cc(Cl)ccc1O)N/N=C\c1cc(Cl)ccc1O,> 100 µM,0.213 µM
CC(=O)NC(CCCN(Cc1ccccc1)C(=O)N(C)N=O)C(=O)NCc1ccccc1 (stereo unspecified),> 100 µM,
COc1ccc2c(c1)CCC/C2=N\NS(=O)(=O)c1c(C)cc(C)cc1C,> 100 µM,
COc1cccc(NC2=C(Cl)C(=O)N(Cc3ccc(Cl)cc3)C2=O)c1,32.8 µM,5.41 µM
CC(C)[Si](OCC1CC(C#N)OC(C)(C)O1)(C(C)C)C(C)C (stereo unspecified),59.5 µM,
Cc1cc(Nc2nc(-c3ccncc3)nc3ccccc23)n[nH]1,> 100 µM,33.4 µM
CC1=C(N2CC2)C(=O)c2ccccc2C1=O,4.92 µM,
CN1CN(C(=O)N2CN(C)C(=O)N(C)C2)CN(C)C1=O,> 100 µM,
CNC(c1ccncc1)C(NC)c1ccncc1 (stereo unspecified),> 100 µM,
C/C(=N\NS(=O)(=O)c1ccc([N+](=O)[O-])cc1)c1ccc[n+]([O-])n1,19.8 µM,
CN1CCN([C@H]2C[C@H]3[C@@H]4CC=C5C[C@@H](O)CC[C@]5(C)[C@H]4CC[C@]3(C)[C@H]2O)CC1,> 83.3 µM,
C/C(CC(=O)Nc1cccc([N+](=O)[O-])c1)=N\NC(=O)CC#N,> 100 µM,
CCOC(=O)C1=C(C)N(Cc2ccccc2)C2(O)C=CC(=O)C3=C(O)c4ccccc4C(=O)C312 (stereo unspecified),43.6 µM,
CSCCCNC(=O)[C@H](CSC)NC(=O)c1csc(CCNC(=O)[C@@H](NSc2ccccc2[N+](=O)[O-])C(C)O)n1 (stereo partly specified),> 100 µM,
CC(C)N1C(C)[C@@H](c2ccccc2)O[P@]1(=O)CC1=CCCCC1 (stereo partly specified),> 100 µM,
NN/C(=N\S(=O)(=O)c1ccc(S(=O)(=O)c2ccccc2)s1)Nc1ccc(Cl)cc1,> 100 µM,
COc1ccc(C2=Nc3c/c(=C\c4c(O)[nH]c5cc(Cl)ccc45)ccc3=N2)cc1,49.6 µM,17 µM

Structure (SMILES),TGI,GI50
Cc1ccc(S(=O)(=O)NC(CO)C(=O)O)cc1 (stereo unspecified),> 100 µM,
O=C(/C=C/c1ccccc1)CCC1C(=O)NC(=S)NC1=O,> 100 µM,
COc1cccc2c1cc1c3c(cc4c(c32)OCO4)C(=O)N1,6.26 µM,2.29 µM
CN1CCN(c2ccc3nc(-c4ccc(OCCCCN5CCN(CCCCN6C(=O)c7cccc8cccc(c78)C6=O)CC5)cc4)[nH]c3c2)CC1,> 100 µM,> 100 µM
CCCCCCCCCCCCCCCC1(OC)C[N+](C)(C)CCO1 (stereo unspecified),33.9 µM,
CC(C)NC(=O)OCc1c(COC(=O)NC(C)C)c(-c2cc[n+](COC(=O)C3CCCCC3)cc2)n2c1CCC2,> 100 µM,
C=C1C(=O)OC2C3OC(C)(CCC(O)C3COC(C)=O)CC(OC(=O)/C(=C/C)COC(C)=O)C12 (stereo unspecified),22.9 µM,
N#C/C(=C\c1ccc2[nH]ccc2c1)C(=O)c1ccc(O)c(O)c1,> 100 µM,
CCOC(=O)C(C/C=C/CO)N(C)C(=O)OC(C)(C)C (stereo unspecified),> 100 µM,
FC(F)(F)c1ccc2nc(Sc3ccc4ccccc4c3)cnc2c1,> 100 µM,
O=c1[nH]c2ccc([N+](=O)[O-])cc2nc1/C=C(\O)c1ccccc1,52.7 µM,
CCOc1cc2c(cc1O)C(N)C[C@@H]1[C@@H]2CC[C@]2(C)[C@@H](O)CC[C@@H]12 (stereo partly specified),> 100 µM,
COc1ccc(C2=NC(c3ccc(Cl)cc3)C(c3ccc(Cl)cc3)N2C(=O)N2CCNC(=O)C2)c(OC(C)C)c1 (stereo unspecified),3.71 µM,1.99 µM
C/C(=N/O)c1ccc(Nc2cc(-n3ccnc3)c3ccccc3n2)cc1,> 100 µM,21.8 µM
O=C(Nc1ccc(Cl)cc1)c1cc(S(=O)(=O)Nc2n[nH]c(=O)n2-c2ccccc2)c(S)cc1Cl,> 100 µM,
Cn1cc(NC(=O)Nc2cc(C(=O)Nc3cc(C(=O)Nc4cc(S(=O)(=O)O)c5cc(S(=O)(=O)O)cc(S(=O)(=O)O)c5c4)n(C)c3)n(C)c2)cc1C(=O)Nc1cc(C(=O)Nc2cc(S(=O)(=O)O)c3cc(S(=O)(=O)O)cc(S(=O)(=O)O)c3c2)n(C)c1,> 100 µM,
Nc1cc2c3c(cccc3c1)C(=O)N(c1ccc(OCCN3CCCC3)cc1)C2=O,50.3 µM,
CCN(CC)Cc1cc(Nc2c3ccccc3nc3cc(Cl)ccc23)ccc1O,5.62 µM,2.07 µM
O=S(=O)(O)c1ccc2c(N=Nc3ccc(Sc4ccc(N=Nc5c(O)ccc6cc(S(=O)(=O)O)ccc56)cc4)cc3)c(O)ccc2c1,> 100 µM,
CC(=O)[C-](C(C)=O)c1ccccc1.CC(=O)[C-](C(C)=O)c1ccccc1.CC(=O)[C-](C(C)=O)c1ccccc1.[Cl-].[Zr+4],> 100 µM,> 100 µM
Cn1cc(-c2nc(N[C@@H]3CCCC[C@@H]3N)c(F)c3c2C(=O)NC3)cn1,> 100 µM,19.6 µM and 27.8 µM
Cc1ccc(/C=N/NS(=O)(=O)c2ccccc2)c(C)c1,> 100 µM,
CC/C(N)=N\NC(=O)OC(C)(C)C,> 100 µM,
O=C(NCCCCCN1CCC2(CCCCC2)CC1)C(C1CCCCC1)C1CCCCC1,12.6 µM,
Cc1cc(Br)cc(C)c1NC(=O)C(=O)Nn1c(=S)[nH]c2ccccc2c1=O,> 100 µM,

Structure (SMILES),TGI,GI50
C=C1CC2[C@H](C)C(=O)CCC2(C)C2=C1C1CCC(C(C)CCC(=C)C(C)C(=O)O)C1(C)CC2=O (stereo partly specified),> 100 µM,
COc1cc(Cn2c(-c3ccccc3)cc3c2-c2oncc2CC3)cc(OC)c1,> 100 µM,0.336 µM
O=c1[nH]c2ccc(CC(=S)N3CCCCC3)cc2s1,> 100 µM,
CC1(C)CC(=O)C2=C(C1)OC1(CC2c2ccc(Cl)cc2)CC(c2ccc(Cl)cc2)C2=C(CC(C)(C)CC2=O)O1 (stereo unspecified),32.2 µM,
COC(=O)c1cc(/C=C\c2cc(OC)ccc2OC)ccc1OC,> 100 µM,
c1ccc(-c2ccnc3c2ccc2c(-c4ccccc4)ccnc23)cc1,6.14 µM,
Cc1c2ccncc2c(C)c2c1[nH]c1ccc(Cl)cc12,6.26 µM and 26 µM,1.89 µM and 3.09 µM
CC1=CC(=O)NP(=O)(C23CC4CC(CC(C4)C2)C3)N1 (stereo unspecified),> 100 µM,
COc1ccc(-c2nc(C(=O)c3ccccc3)n(CC(=O)c3ccc(Cl)cc3)c2-c2ccc(OC)cc2)cc1,> 100 µM,> 100 µM
NNC(=O)C(O)C(O)C(=O)NN (stereo unspecified),> 100 µM,
COc1ccc2c(c1)/C(=N/OC(C)=O)c1c-2cnc2ccccc12,88.3 µM,29.4 µM
CCc1cc(Cc2ccc(C)c(NC(=O)C(=O)C3C(=O)NC(=O)NC3=O)c2CC)cc(C)c1NC(=O)C(=O)C1C(=O)NC(=O)NC1=O,> 100 µM,
Cc1c(Cl)cccc1NC(=O)c1sc2nc3c(cc2c1N)CCCC3,> 100 µM,> 88 µM
COc1cc(-c2cc(=O)c3c(O)c(OC)c(OC)c(OC)c3o2)cc(OC)c1OC,> 100 µM,
O=C(O)CCc1nc(-c2ccccc2-n2cccc2)no1,> 100 µM,
O=C1C=Cc2ncccc2C1=O,> 52.5 µM,
O=C1c2cc([N+](=O)[O-])sc2C(=O)c2c([N+](=O)[O-])csc21,3.2 µM,
CCCN1CCC=C(c2ccc(Nc3nc(Nc4ccccc4C(N)=O)c4cc[nH]c4n3)c(C)c2)C1,> 25 µM,1.72 µM
COC(=O)C(NC(=O)OC(C)(C)C)P(=O)(OC)OC (stereo unspecified),> 100 µM,
CC1C2(C)OCC(C#N)(C(=N)O2)C1(C#N)C#N (stereo unspecified),> 100 µM,
O=C(c1ccc2ccccc2c1)c1c(C(F)(F)F)n([O-])c2ccc(F)cc2[n+]1=O,4.54 µM,2.02 µM
NS(=O)(=O)c1ccc(N=Nc2ccc(O)c(C(=O)O)c2)cc1,> 100 µM,
COc1cc2c(cc1OCCCOc1ccc(-c3nc4ccc(N5CCN(C)CC5)cc4[nH]3)cc1)N=C[C@@H]1CCCN1C2=O,< 0.01 µM,< 0.01 µM
CC(C)(C)C1=C(Br)C(OC(=O)C(F)(F)F)(C(C)(C)C)OP1(=O)c1ccccc1 (stereo unspecified),> 100 µM,
CCOC(=O)/C=C/[C@@H](CC)O[Si](C(C)C)(C(C)C)C(C)C,> 100 µM,

Structure (SMILES),TGI,GI50
O=C1CCC(=O)c2sccc2N1,> 100 µM,
O=C1CC(c2ccccc2)S(=O)c2ccccc2N1 (stereo unspecified),> 100 µM,
c1cc2c(cc1C1=NCCN1)c1cc(C3=NCCN3)ccc1n2CC1CCCCC1,80.5 µM,
COc1cc(/C=N/NC2=NCCN2)ccc1O,> 100 µM,
N#Cc1nc(-c2cccc(-c3nc(C#N)c(N)o3)n2)oc1N,> 100 µM,
C=CCNC(=S)/N=C/C(C(=O)Nc1ccccc1C)=C(\C)O,> 100 µM,
NC(=O)Oc1ccccc1,> 100 µM,
O=c1c2ccccc2nc(-c2ccccc2)n1NC(=S)Nc1cccc(Cl)c1,> 100 µM,
CCOC(=O)c1cc(Br)c(-c2cc(C)co2)[nH]1,> 100 µM,
Cc1cc(=O)oc2c(CNC(CC(C)C)C(=O)O)c(O)ccc12 (stereo unspecified),> 100 µM,
CCOC(C)OC1CC(n2cc(C)c(=O)[nH]c2=O)OC1CO (stereo unspecified),> 100 µM,
O=C(Nc1nc2ccccc2s1)c1cc(-c2ccc(F)cc2)n2nc(-c3ccccc3)cc2n1,> 100 µM,5.84 µM
Cc1ccc2c(c1C)C(=O)/C(=C/c1cccc(C)c1C(=O)O)C2,> 100 µM,
[Cl-].[Fe+2].c1ccc(-c2ccnc3c2ccc2c(-c4ccccc4)ccnc23)cc1.c1ccc(-c2ccnc3c2ccc2c(-c4ccccc4)ccnc23)cc1.c1ccc(-c2ccnc3c2ccc2c(-c4ccccc4)ccnc23)cc1,> 100 µM,
CCOC(=O)CCC(NC(=O)c1ccc(Nc2nc3ccccc3nc2C(=O)OCC)cc1)C(=O)OCC (stereo unspecified),58.4 µM,
CC(C)(C)[Si](C)(C)OC[C@H](/C=C\CCCC(=O)O)NC1(c2ccccc2)c2ccccc2-c2ccccc21,95.9 µM,
C(=C/c1nc2ccccc2o1)/c1ccc2c(c1)OCO2,> 100 µM,
CCCCCCCCCCCCO[P+](=O)OCCCCCCCCCCCC,> 100 µM,
COc1ccc2c(c1)c1c3n2CCNN=C3CCC1,> 100 µM,
O=S1(=O)c2ccccc2N=C(c2ccccc2Cl)CC1c1ccc(F)cc1 (stereo unspecified),40.6 µM,
Nc1nc(N)c2c(n1)NC(c1sc(Cl)nc1Cl)CC(c1ccc3c(c1)OCO3)=N2 (stereo unspecified),> 100 µM,14.9 µM
CC(=O)OC(=O)O/C=C\CCl,> 100 µM,
O=C1C=C(N2CCN(CCOCCO)CC2)C(=O)c2c(O)ccc(O)c21,14 µM,
